Results: PubChem BioAssay AID463173 (ICCB-Longwood Screening Facility, Harvard Medical School, 2010)
Screen size: about 52,000 compounds; about 1,700 (3.3%) were called active. Rule as the data show it: active = survival mostly below about 52% (no sharp cut-off); inactive = mostly above about 56%. This is one part of the list.

system: Wild type; experiment: S. aureus survival, RN4220 and DeltatarO strains – OD600, teichoic acid synthesis inhibitors, primary screen (AID 463173); details: S. aureus RN4220 wild type/DeltatarO growth, OD600, 18 h, hits give low values, screened at 18.75 µg/mL (by protocol)

**Q.** With `CCc1ccc(C2c3c(-c4ccccc4)n[nH]c3C(=O)N2c2ccc(C(=O)O)cc2)cc1` (stereo not drawn) as the compound, how does the survival read?
**A.** The survival was inactive: 79%.

**Q.** With `O=C(CN1N=C(c2ccccc2)CCC1=O)NCc1ccc(F)cc1Cl` as the compound, how does the survival read?
**A.** Its survival is inactive: 78%.

**Q.** `COc1cccc(-n2cc(C(=O)NCc3ccc(C)cc3)c3ccccc3c2=O)c1` was tested. Which survival did it give?
**A.** The survival was inactive: 112%.

**Q.** `O=C(NC1CC(=O)N(c2ccc(Cl)cc2)C1)c1ccc(S(=O)(=O)N2CCOCC2)cc1` (stereo not drawn) was tested. Which survival did it give?
**A.** The survival was inactive: 91%.

**Q.** How did the survival turn out when `O=C(O)CCC1NC(=O)NC1=O` (stereo not drawn) was run?
**A.** Its survival is inactive: 117%.

**Q.** `CCOC(=O)c1ccc(NC(=O)c2nc(SCc3ccccc3F)ncc2Cl)cc1` was tested. Which survival did it give?
**A.** The survival was inactive: 87%.

**Q.** With `COc1cc(C2C(C(=O)Nc3ccccc3)=C(C)Nc3nnnn32)cc(OC)c1OC` (stereo not drawn) as the compound, how does the survival read?
**A.** The survival was inactive: 101%.

**Q.** `COc1ccc(-c2noc(CN(C(=O)c3cc(OC)c(OC)cc3OC)C(C)C)n2)cc1` was tested. Which survival did it give?
**A.** The survival was inactive: 86%.

**Q.** For `CCCCOC(=O)c1ccc(Nc2nnc(-n3nc(C)cc3C)c3ccccc23)cc1`, which survival is on record?
**A.** Its survival is inactive: 120%.

**Q.** `Cc1nnc2c3ccccc3nc(Nc3cccc(O)c3)n12` was tested. Which survival did it give?
**A.** Its survival is inactive: 78%.

**Q.** How did the survival turn out when `CCOc1ccc2nc(N3CCCC(C(=O)NCc4ccccc4OC)C3)sc2c1` (stereo not drawn) was run?
**A.** Its survival is inactive: 85%.

**Q.** With `Cc1ccc(Cl)cc1NC(=O)C1CCN(c2nc3ccccc3n3cccc23)CC1` as the compound, how does the survival read?
**A.** Its survival is inactive: 83%.

**Q.** Which survival does the source give for `CCCn1c2ccccc2c2cnn(CC(=O)NCCc3ccc(C)cc3)c(=O)c21` here?
**A.** Its survival is inactive: 121%.

**Q.** `Cc1ccc(/C=C/c2onc(C)c2S(=O)(=O)N2CCC(C(=O)Nc3cc(F)ccc3F)CC2)cc1` was tested. Which survival did it give?
**A.** The survival was inactive: 72%.

**Q.** For `O=C(CC(c1ccc(Cl)cc1)S(=O)(=O)c1ccccc1)c1ccco1` (stereo not drawn), which survival is on record?
**A.** The survival was inactive: 107%.

**Q.** Which survival does the source give for `CCOc1ccc(S(=O)(=O)Nc2cc(Cl)ccc2OC)c2cccnc12` here?
**A.** Its survival is inactive: 90%.

**Q.** `Cc1cc(C)c2oc(C(=O)Nc3ccc(S(=O)(=O)Nc4nccc(C)n4)cc3)cc(=O)c2c1` was tested. Which survival did it give?
**A.** The survival was inactive: 70%.

**Q.** For `CC(C)Nc1nc(NC(N)=O)nc(NC(C)C)n1`, which survival is on record?
**A.** Its survival is inactive: 103%.

**Q.** With `COCCn1c(=O)[nH]c2cc(C(=O)Nc3cccc(C(C)=O)c3)ccc2c1=O` as the compound, how does the survival read?
**A.** Its survival is inactive: 73%.

**Q.** How did the survival turn out when `COc1ccc(Nc2oc(/C=C/c3ccc(OC)c(OC)c3)nc2C#N)cc1` was run?
**A.** Its survival is inactive: 95%.

**Q.** How did the survival turn out when `CCc1nn(CC(=O)NCCCOC)c(=O)c2cc3ccccc3n12` was run?
**A.** The survival was inactive: 91%.

**Q.** For `Cc1ccc(CN2CCCn3nc(C(=O)NCC(C)c4ccccc4)cc3C2=O)cc1` (stereo not drawn), which survival is on record?
**A.** Its survival is inactive: 87%.

**Q.** For `CCCn1c(CCC(=O)Nc2ccccc2OC)nc2cccnc21`, which survival is on record?
**A.** The survival was inactive: 89%.

**Q.** How did the survival turn out when `CCOc1ccc(S(=O)(=O)NCCc2sc3nc(-c4ccc(C)cc4)nn3c2C)cc1` was run?
**A.** Its survival is inactive: 129%.

**Q.** With `Cc1cc(C)cc(-n2ccn(Cc3ccc(F)cc3)c(=O)c2=O)c1` as the compound, how does the survival read?
**A.** The survival was inactive: 85%.

**Q.** `Cc1cccc(C)c1Nc1c(-c2ccc(O)cc2)nc2sccn12` was tested. Which survival did it give?
**A.** The survival was inactive: 44%.

**Q.** For `O=c1c2sc3ccccc3c2n(Cc2cccc(C(F)(F)F)c2)c(=O)n1Cc1ccc(F)cc1`, which survival is on record?
**A.** Its survival is inactive: 128%.

**Q.** How did the survival turn out when `O=c1oc2ccccc2cc1-c1cn2cc(Cc3ccc(Br)cc3)sc2n1` was run?
**A.** The survival was inactive: 84%.

**Q.** `COc1ccc2oc(-c3cccc(NC(=O)c4sc5c([N+](=O)[O-])cccc5c4Cl)c3)nc2c1` was tested. Which survival did it give?
**A.** Its survival is inactive: 92%.

**Q.** `COc1ccc(NC(=O)CC2C(=O)N(c3cccc(OC)c3)C(=O)N2Cc2ccc3c(c2)OCO3)cc1` (stereo not drawn) was tested. Which survival did it give?
**A.** The survival was inactive: 79%.

**Q.** `Cc1ccc(-c2cn(-c3ccc(Cl)cc3)c(S(=O)(=O)CC(=O)Nc3ccccc3)n2)cc1` was tested. Which survival did it give?
**A.** Its survival is inactive: 78%.

**Q.** Which survival does the source give for `Cc1cc(C)cc(NC(=O)C2CCN(S(=O)(=O)c3cccc(-c4noc(C)n4)c3)CC2)c1` here?
**A.** The survival was active: -6%.

**Q.** How did the survival turn out when `COc1ccc(S(=O)(=O)c2nnn(-c3ccc(C)c(Cl)c3)c2C)cc1` was run?
**A.** The survival was inactive: 115%.

**Q.** For `Cc1cc(NC(=O)CSc2ccccc2)no1`, which survival is on record?
**A.** The survival was inactive: 103%.

**Q.** For `Cc1ccc(CNC(=O)CCCN2C(=O)COc3ccc(C)cc32)cc1`, which survival is on record?
**A.** Its survival is inactive: 77%.

**Q.** How did the survival turn out when `CC(C)NC(=O)C1CCN(C(=O)c2ccc(Cl)cc2)CC1` was run?
**A.** The survival was inactive: 87%.

**Q.** Which survival does the source give for `CC1=Nc2cc(C(=O)NC(C)C)ccc2Sc2ccc(C)cc21` here?
**A.** The survival was inactive: 77%.

**Q.** With `Cc1cc(-c2ccccc2)c(C#N)c(N)n1` as the compound, how does the survival read?
**A.** Its survival is inactive: 103%.

**Q.** `Fc1ccc(Br)cc1C1C=C(c2ccc(Br)cc2)Nc2nnnn21` (stereo not drawn) was tested. Which survival did it give?
**A.** Its survival is inactive: 81%.

**Q.** How did the survival turn out when `Cc1cccc(NC(=O)C(=O)NCCc2csc(-c3ccc(C(F)(F)F)cc3)n2)c1C` was run?
**A.** Its survival is inactive: 99%.

**Q.** With `O=C(CC1N=C2c3ccccc3N=C(SCC(=O)Nc3ccccc3F)N2C1=O)NCc1cccs1` (stereo not drawn) as the compound, how does the survival read?
**A.** Its survival is inactive: 73%.

**Q.** Which survival does the source give for `CN(C)/C(=N\O)c1nonc1N` here?
**A.** Its survival is inactive: 106%.

**Q.** With `CC1CCc2c(sc(NC(=O)c3cc(-c4ccc(F)cc4)on3)c2C(N)=O)C1` (stereo not drawn) as the compound, how does the survival read?
**A.** The survival was inactive: 74%.

**Q.** For `Cc1ccc2sc(N(Cc3cccnc3)C(=O)C3COc4ccccc4O3)nc2c1C` (stereo not drawn), which survival is on record?
**A.** Its survival is inactive: 60%.

**Q.** How did the survival turn out when `Cc1ccc(NC(=O)c2c(NC(=O)c3ccccc3)sc3c2CCC3)cc1` was run?
**A.** The survival was inactive: 79%.

**Q.** `Cc1c(C#N)c2ccccc2n1CC(=O)NC1CCCCCC1` was tested. Which survival did it give?
**A.** Its survival is inactive: 107%.

**Q.** With `CCc1ccc(CN(C(=O)c2cc(=O)c3ccc(C)cc3o2)C2CCS(=O)(=O)C2)cc1` (stereo not drawn) as the compound, how does the survival read?
**A.** The survival was inactive: 107%.

**Q.** `COc1cccc(CNC(=O)CCCn2nc(C)c3c(C)n(-c4ccc(C)cc4)nc3c2=O)c1OC` was tested. Which survival did it give?
**A.** The survival was inactive: 78%.

**Q.** Which survival does the source give for `CCN(CC)CCNC(=O)c1ccc(-n2c(-c3ccccc3)cc3c2CCCC3)cc1` here?
**A.** Its survival is active: 2%.

**Q.** With `CN(C)S(=O)(=O)c1ccc2c(c1)C(CC(=O)O)OC2=O` (stereo not drawn) as the compound, how does the survival read?
**A.** The survival was inactive: 103%.

**Q.** How did the survival turn out when `O=C(O)c1cccc(N=NN2CCOCC2)c1` was run?
**A.** Its survival is inactive: 110%.

**Q.** With `CC(C)Cn1c(=O)c2sccc2n2c(CCCC(=O)NC3CCCCC3)nnc12` as the compound, how does the survival read?
**A.** The survival was inactive: 100%.

**Q.** How did the survival turn out when `CCCCc1ccc(NC(=O)C2(C)Cc3ccccc3C(=O)O2)cc1` (stereo not drawn) was run?
**A.** The survival was inactive: 83%.

**Q.** How did the survival turn out when `CCc1ccc(C2CC(=O)Oc3c2c(=O)n(C)c2ccccc32)cc1` (stereo not drawn) was run?
**A.** The survival was inactive: 64%.

**Q.** How did the survival turn out when `Cc1cccc(-c2nc(C(N)=O)c3c(n2)n(-c2ccc4c(c2)OCO4)c(=O)n3C)c1` was run?
**A.** The survival was inactive: 68%.

**Q.** How did the survival turn out when `COc1ccc(N(C)C(=O)c2cc(S(=O)(=O)N3CCc4ccccc43)cn2C)c(OC)c1` was run?
**A.** The survival was inactive: 99%.

**Q.** For `Cc1ccc(C2C(C#N)=C(N)OC3=C2C(=O)CC(C)(C)C3)s1` (stereo not drawn), which survival is on record?
**A.** The survival was inactive: 107%.

**Q.** Which survival does the source give for `Cc1ccc(CN(Cc2ccco2)c2cnc(S(C)(=O)=O)nc2C(=O)Nc2ccccc2Br)o1` here?
**A.** Its survival is inactive: 94%.
